The values that follow are results of earlier work, collected in paper PMC12030314, “Biomarker-Driven Pharmacokinetics and Efficacy of Polymyxin B in Critically Ill Patients with XDR-GN Pneumonia” (Pharmaceuticals, 2025).

For this data set the following is noted: Chinese critically ill patients, CRO nosocomial pneumonia; loading 100–200 mg, 40–100 mg every 12 h; population PK model; ref Zhang et al., 2023 [60]; cited from earlier work. An excerpt: Table A1 Published PMB PK/PD studies. | […] . […] In studies of noncritically ill patients, the Vd reported in non-Asian patie ...

Where a SMILES comes first, the peptide text is derived from it. Bridges are numbered along the chain shown (N, C = ends). [ ]: non-standard residue; d: D form. The star is where a group is joined. X1 = CC[C@H](C)CCCCC(=O)*; Dab = NCC[C@H](N)C(=O)O

In the case of `CC[C@H](C)CCCCC(=O)N[C@@H](CCN)C(=O)N[C@H](C(=O)N[C@@H](CCN)C(=O)N[C@H]1CCNC(=O)[C@H]([C@@H](C)O)NC(=O)[C@H](CCN)NC(=O)[C@H](CCN)NC(=O)[C@H](CC(C)C)NC(=O)[C@@H](Cc2ccccc2)NC(=O)[C@H](CCN)NC1=O)[C@@H](C)O` [PMB, polymyxin B] (X1-[Dab]T[Dab][Dab][Dab][dF]L[Dab][Dab]T; lactam 4-C), the CL is 1.56 L/h.
